Experimental data: a compilation of properties of binary mixtures (doi:10.3866/pku.whxb202001015)
The densities may have been worked out from excess volumes.

Test: xn = mol fraction of the nth substance listed
Details: 293.15 K, 101.3 kPa

CC(=O)[O-].Cn1cc[nH+]c1 + O
Details | mass density [kg/m3]
x2 = 0 | 1156.1
x2 = 0.2845 | 1151.5
x2 = 0.4277 | 1147.3
x2 = 0.5098 | 1143.6
x2 = 0.6959 | 1127.8
x2 = 0.8691 | 1088.6
x2 = 0.9207 | 1064.6
x2 = 0.9425 | 1050.8
x2 = 0.9559 | 1041.1
x2 = 0.9677 | 1031.8
